This is an account of results in publication PMC10668032.

The other results are listed elsewhere or left out. At the low end of the ranking, values are background and their order means little.

The target in the experiment is SIX1 homeodomain (reference allele) (UniProt Q15475). Kind of experiment: universal protein binding microarray. The following applies: Universal all-10-mer PBM (8x60K, AMADID 030236), 300 nM GST-tagged protein, Alexa Fluor 488 anti-GST; buffer, salt, pH and temperature not stated; high values mean tight binding; most listed sequences are background and not binding sites; double strand, one strand shown.
Take ATAGCCAA: the binding signal is 0.218 E-score.
As to AACTCACA, the binding signal is -0.139 E-score.
With GCTGTTCC the figure was -0.205 E-score; with CACCTCAA, -0.0381 E-score.
For CGACTTCA the value was -0.143 E-score.
For the sequence CAAAGTTA, the binding signal was -0.188 E-score.
Regarding CTCCGTAA, the binding signal is -0.115 E-score.
Consider CTACGAAC, for which the binding signal is -0.0905 E-score.
With CTTCATTA the figure was 0.0482 E-score; with CCCCGCTA, 0.188 E-score; with CCATTCGG, -0.016 E-score.
With CCAAACAG the figure was -0.051 E-score; with AGAGCTAG, 0.00963 E-score.
For CATGAACC the value was -0.0472 E-score; for GACGACGA, -0.102 E-score.
For the sequence AAAGGCTG, the binding signal was -0.0471 E-score.
Turning to CCCAATAC, the binding signal turned out to be 0.248 E-score.
With ACTACCAG the figure was -0.0492 E-score; with CATCGAAA, 0.0666 E-score; with ACCTACTA, 0.0903 E-score.
With AGCACGCG the figure was -0.113 E-score.
Turning to CCCGCCTC, the binding signal amounted to 0.0254 E-score.
With CAGCTTTC the figure was -0.202 E-score; with ATCATTAG, 0.281 E-score.
For CAGACCAC the value was -0.173 E-score.
Regarding AAGTGTGG, the binding signal was -0.217 E-score.
For CCGGCGCA the value was 0.0263 E-score.
As to CCCAAAAA, the binding signal is -0.171 E-score.
With CCATTTTC the figure was -0.191 E-score.
With CTAGAGCC the figure was -0.184 E-score.
As for TCACTGCA, the binding signal amounted to 0.0809 E-score.
For CGGCGAGA the value was 0.0218 E-score.
For CGTTGATA the value was 0.334 E-score.
For GCGTTTAA the value was -0.158 E-score.
For AAGCAGGA, the binding signal was 0.0204 E-score.
With CAAGGTGG the figure was -0.0251 E-score.
With AGTTATCC the figure was 0.295 E-score.
With AATAGCTA the figure was 0.0677 E-score.
As to GGGGGCGA, the binding signal was 0.0661 E-score.
For AAGGGTCT the value was -0.181 E-score.
With ATCTTGGG the figure was 0.0749 E-score; with ACCATTAG, 0.0888 E-score; with CTTAATAC, 0.281 E-score.
CAGCCGTA: the binding signal worked out at 0.0272 E-score.
Consider CCGACGCG, for which the binding signal is -0.00796 E-score.
For ACAGACTA the value was -0.221 E-score; for ACCCGATC, 0.372 E-score; for GGATGGGA, 0.195 E-score.
With AAGACCAT the figure was -0.0996 E-score.
For CGTAAACC the value was 0.0445 E-score; for ACTGCACA, 0.0686 E-score; for GGACACAC, 0.0475 E-score.
GCCTCATA: the binding signal is -0.157 E-score.
As for ATCATTTG, the binding signal is 0.244 E-score.
For GCACAAGC the value was -0.114 E-score; for TATATCGA, 0.387 E-score.
For AATGTAAC the value was -0.0329 E-score.
With TAATTGAA the figure was -0.235 E-score; with GTAGAGAA, 0.0807 E-score.
ACACTCAT: the binding signal was determined as 0.116 E-score.
Regarding GAATTACC, the binding signal was -0.0736 E-score.
Take TCCATTCA: the binding signal stood at 0.03 E-score.
For GCTTACGA the value was -0.2 E-score; for AAGGCATG, -0.223 E-score.
With GCTGGGGA the figure was -0.017 E-score; with TGCTGAAA, -0.148 E-score.
For AATCAGGG the value was 0.152 E-score; for AGATTTAC, -0.18 E-score.
Turning to GAAAGATA, the binding signal was 0.324 E-score.
For AGATGCAA the value was -0.14 E-score.
For CGGCGCGC the value was -0.131 E-score; for AGAATCAC, -0.0728 E-score; for TAGGCTCA, 0.0413 E-score.
For CAACGCGA the value was -0.029 E-score; for AAGCATGT, -0.0961 E-score.
As for AAAGAAGA, the binding signal is -0.11 E-score.
Consider AGGGAGCC, for which the binding signal was -0.142 E-score.
For AACTAACC the value was -0.09 E-score; for ACAGCCAA, -0.278 E-score; for CTATTACA, 0.0832 E-score.
With CTTGTGAC the figure was -0.129 E-score.
On to ACTGAGTA, for which the binding signal was 0.069 E-score.
For GTCGGACA the value was -0.119 E-score; for AAAACTCA, -0.0736 E-score; for GGCTTAAC, -0.0876 E-score.
With CACATAAG, the binding signal was -0.0269 E-score.
For AAACTGAA the value was -0.182 E-score; for AGAACCAC, -0.166 E-score; for CATCGCGA, 0.015 E-score.
With AGGTTCAA the figure was 0.0503 E-score.
With CGCTGATA the figure was 0.325 E-score.
Turning to GCAATCCA, the binding signal is 0.0921 E-score.
With ATCTCGCA the figure was 0.137 E-score; with CGATGCAC, 0.0365 E-score.
For CTTAGCTC the value was -0.093 E-score; for AATATCTA, 0.259 E-score.
For CAGTCATG the value was -0.152 E-score.
For CATAGGGA, the binding signal was 0.0396 E-score.
Regarding AGTATATA, the binding signal came to 0.306 E-score.
For GACCTACC the value was -0.13 E-score; for CTATGGCA, -0.11 E-score.
For AGATAGGG the value was 0.263 E-score; for CGTGACGA, -0.025 E-score.
For AGTCTCGA the value was -0.051 E-score; for ATTAAGAA, -0.0818 E-score; for CGATTCTA, -0.0926 E-score.
AGGTTCTG: the binding signal was -0.101 E-score.
With CTCGCCAC the figure was -0.0146 E-score.
With ACCAGAAA the figure was -0.0438 E-score; with ATGAGGCG, -0.0314 E-score.
